No constants are given. Whether binding was seen depends on the method and setting. Binding seen in cells or lysates may run through a third protein. Some binding calls cover weakened binding; strength is not graded here.

Amino acid sequences for entries named in this document (tags omitted). A change or cut given only in a name is not applied to a line headed by its entry. Chains listed by the source or under a name are the forms on record and can include a tag or linker. Residues count along the entry.
UniProt P19474: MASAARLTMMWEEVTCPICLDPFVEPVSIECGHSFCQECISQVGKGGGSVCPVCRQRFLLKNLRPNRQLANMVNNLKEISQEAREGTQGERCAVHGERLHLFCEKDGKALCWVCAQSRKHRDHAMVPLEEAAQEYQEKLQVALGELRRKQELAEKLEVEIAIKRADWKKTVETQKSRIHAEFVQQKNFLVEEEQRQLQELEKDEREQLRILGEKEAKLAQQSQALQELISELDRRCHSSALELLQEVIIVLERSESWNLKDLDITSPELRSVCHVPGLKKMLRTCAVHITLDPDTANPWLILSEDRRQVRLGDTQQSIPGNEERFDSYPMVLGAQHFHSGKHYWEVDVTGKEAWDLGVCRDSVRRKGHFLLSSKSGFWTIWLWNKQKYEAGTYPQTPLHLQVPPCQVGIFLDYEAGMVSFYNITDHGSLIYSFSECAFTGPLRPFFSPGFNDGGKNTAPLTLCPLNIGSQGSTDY
His-TRIM21 deletion mutant lacking residues 12-55 located in the RING domain (His-RING^Δ) (P19474, form named): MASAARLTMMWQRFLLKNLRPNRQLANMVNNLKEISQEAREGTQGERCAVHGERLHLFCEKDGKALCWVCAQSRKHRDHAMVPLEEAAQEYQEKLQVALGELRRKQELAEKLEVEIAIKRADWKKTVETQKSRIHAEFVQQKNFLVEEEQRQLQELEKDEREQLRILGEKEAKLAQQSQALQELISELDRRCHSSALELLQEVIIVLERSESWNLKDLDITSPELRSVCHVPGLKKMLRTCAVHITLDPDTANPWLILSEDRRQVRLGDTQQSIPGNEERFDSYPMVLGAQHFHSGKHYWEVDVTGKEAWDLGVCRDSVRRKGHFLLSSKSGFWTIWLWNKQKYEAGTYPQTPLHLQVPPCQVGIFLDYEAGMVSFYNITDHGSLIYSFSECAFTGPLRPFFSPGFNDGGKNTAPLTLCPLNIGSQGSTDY
His-TRIM21 deletion mutant lacking residues 286-465 located in the SPRY domain (His-SPRY^Δ) (P19474, form named): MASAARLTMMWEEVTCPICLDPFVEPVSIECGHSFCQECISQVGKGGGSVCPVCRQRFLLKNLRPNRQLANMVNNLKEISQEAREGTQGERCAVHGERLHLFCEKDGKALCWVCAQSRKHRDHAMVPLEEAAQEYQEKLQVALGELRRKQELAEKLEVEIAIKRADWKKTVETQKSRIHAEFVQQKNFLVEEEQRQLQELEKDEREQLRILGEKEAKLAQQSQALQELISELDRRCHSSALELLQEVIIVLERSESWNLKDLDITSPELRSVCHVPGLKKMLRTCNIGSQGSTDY
UniProt P19096: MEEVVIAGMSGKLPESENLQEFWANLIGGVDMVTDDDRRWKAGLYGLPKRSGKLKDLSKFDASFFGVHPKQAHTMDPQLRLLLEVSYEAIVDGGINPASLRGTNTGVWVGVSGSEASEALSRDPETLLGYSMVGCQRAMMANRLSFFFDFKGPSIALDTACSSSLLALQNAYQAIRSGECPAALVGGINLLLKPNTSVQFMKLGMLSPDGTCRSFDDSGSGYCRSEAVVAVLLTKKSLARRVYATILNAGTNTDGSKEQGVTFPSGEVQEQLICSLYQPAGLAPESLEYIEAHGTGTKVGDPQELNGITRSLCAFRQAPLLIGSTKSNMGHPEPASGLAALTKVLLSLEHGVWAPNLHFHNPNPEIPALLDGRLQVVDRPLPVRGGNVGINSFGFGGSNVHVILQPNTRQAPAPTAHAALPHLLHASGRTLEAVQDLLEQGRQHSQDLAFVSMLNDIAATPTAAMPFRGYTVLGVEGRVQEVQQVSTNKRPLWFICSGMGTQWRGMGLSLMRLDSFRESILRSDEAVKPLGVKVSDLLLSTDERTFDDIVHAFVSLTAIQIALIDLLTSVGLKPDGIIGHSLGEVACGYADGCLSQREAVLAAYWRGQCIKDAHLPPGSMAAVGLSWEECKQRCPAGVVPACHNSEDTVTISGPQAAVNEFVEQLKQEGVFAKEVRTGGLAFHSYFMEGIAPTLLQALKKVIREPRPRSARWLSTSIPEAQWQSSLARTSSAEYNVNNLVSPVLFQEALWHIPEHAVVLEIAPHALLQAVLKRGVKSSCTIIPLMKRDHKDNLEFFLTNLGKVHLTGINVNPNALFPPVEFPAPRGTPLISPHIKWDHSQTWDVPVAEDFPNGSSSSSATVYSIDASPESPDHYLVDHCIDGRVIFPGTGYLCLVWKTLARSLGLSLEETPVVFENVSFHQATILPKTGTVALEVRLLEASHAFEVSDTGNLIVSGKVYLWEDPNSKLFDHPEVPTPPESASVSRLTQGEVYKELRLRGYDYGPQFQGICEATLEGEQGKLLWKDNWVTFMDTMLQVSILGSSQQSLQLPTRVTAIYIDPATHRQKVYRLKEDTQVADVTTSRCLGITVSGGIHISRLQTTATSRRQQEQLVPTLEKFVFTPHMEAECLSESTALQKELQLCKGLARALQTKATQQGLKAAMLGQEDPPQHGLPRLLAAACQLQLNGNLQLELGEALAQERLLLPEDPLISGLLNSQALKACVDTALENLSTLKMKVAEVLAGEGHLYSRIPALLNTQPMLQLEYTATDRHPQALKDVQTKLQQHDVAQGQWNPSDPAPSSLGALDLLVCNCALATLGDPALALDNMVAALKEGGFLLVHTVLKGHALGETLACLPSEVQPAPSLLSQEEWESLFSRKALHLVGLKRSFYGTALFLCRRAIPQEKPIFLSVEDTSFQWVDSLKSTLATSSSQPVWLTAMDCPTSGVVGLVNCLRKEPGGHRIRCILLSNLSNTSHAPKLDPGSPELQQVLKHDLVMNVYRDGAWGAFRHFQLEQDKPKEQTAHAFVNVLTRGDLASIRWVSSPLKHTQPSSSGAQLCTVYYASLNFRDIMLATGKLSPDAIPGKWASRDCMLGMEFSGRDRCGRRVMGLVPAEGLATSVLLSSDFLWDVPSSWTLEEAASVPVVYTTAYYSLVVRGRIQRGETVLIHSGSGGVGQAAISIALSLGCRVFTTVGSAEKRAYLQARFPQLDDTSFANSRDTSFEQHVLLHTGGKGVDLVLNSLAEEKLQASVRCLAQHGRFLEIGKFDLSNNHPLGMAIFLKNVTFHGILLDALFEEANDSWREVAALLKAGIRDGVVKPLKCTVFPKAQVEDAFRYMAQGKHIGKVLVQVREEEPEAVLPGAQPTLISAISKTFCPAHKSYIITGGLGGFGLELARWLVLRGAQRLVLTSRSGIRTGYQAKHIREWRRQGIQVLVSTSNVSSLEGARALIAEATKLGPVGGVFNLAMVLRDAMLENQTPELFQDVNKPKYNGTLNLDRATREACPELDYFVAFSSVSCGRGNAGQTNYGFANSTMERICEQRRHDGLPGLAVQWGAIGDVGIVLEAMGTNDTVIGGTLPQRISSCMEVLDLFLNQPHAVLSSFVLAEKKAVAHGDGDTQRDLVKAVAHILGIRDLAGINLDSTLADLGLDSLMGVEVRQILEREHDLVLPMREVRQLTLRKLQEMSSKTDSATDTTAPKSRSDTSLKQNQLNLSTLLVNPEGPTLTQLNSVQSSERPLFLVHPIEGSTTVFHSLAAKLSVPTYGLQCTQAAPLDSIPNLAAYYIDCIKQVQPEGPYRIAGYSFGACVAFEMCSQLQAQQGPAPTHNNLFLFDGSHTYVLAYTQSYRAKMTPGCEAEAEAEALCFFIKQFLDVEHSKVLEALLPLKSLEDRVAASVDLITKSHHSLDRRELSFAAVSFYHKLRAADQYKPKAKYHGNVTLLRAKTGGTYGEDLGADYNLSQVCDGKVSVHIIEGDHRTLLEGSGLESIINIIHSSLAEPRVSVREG

Experiment [1] addresses TRIM21 WT (wild type), plasmid-expressed (UniProt P19474). In words: co-IP; mouse primary hepatocytes transfected with TRIM21 WT, His-RING^Δ or His-SPRY^Δ plasmids for 48 h, MG132 (10 μmol/L) for 4 h before lysis; His-tag immunoprecipitated; blot for FASN, PEPCK1 and His-tag.
The target in experiment [2] is His-TRIM21 deletion mutant lacking residues 12-55 located in the RING domain (His-RING^Δ) (UniProt P19474). The description is as above.
Experiment [3] deals with His-TRIM21 deletion mutant lacking residues 286-465 located in the SPRY domain (His-SPRY^Δ) (UniProt P19474). Described as above.
The target in experiment [4] is T1, tripartite motif-containing protein 21 (TRIM21), endogenous in mouse primary hepatocytes (mouse (endogenous in primary hepatocytes)) (UniProt Q62191).
T1 sequence: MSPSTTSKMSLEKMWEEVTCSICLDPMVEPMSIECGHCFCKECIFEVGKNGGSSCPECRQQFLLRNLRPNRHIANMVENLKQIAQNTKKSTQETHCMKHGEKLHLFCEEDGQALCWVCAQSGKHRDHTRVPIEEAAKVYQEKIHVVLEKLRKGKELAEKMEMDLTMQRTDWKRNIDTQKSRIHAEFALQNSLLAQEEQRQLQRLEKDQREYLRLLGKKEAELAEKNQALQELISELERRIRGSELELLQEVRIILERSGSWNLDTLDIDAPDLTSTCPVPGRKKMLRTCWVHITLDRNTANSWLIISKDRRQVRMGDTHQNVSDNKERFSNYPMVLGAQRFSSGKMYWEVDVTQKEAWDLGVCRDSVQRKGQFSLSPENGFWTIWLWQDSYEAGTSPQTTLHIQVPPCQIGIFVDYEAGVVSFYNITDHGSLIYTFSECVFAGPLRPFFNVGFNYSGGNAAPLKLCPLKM
In words: co-IP; endogenous proteins in mouse primary hepatocyte lysate; IP with anti-TRIM21, anti-PEPCK1 or anti-FASN antibody or control IgG, protein A/G agarose, overnight; immunoblot.

Consider “fatty acid synthase (FASN), endogenous in mouse primary hepatocytes (from UniProt P19096 1-2504)”, for which the binding entry in experiment [1] is reported as “binds”; in experiment [2], “no binding”; in experiment [3], “binds”; in experiment [4] it was “binds”.

Values taken from publication PMC10229743.
